# Experimental data: PubChem BioAssay AID588463 (National Center for Advancing Translational Sciences (NCATS), 2011)
# The campaign covered roughly 1,200 compounds. About 15 (1%) were called active. The shares of active, inactive and inconclusive entries below differ from those in the screen. The call rests on the fitted dose curve; in most records, active means well fitted activation curve with a large enough effect; inconclusive means small, poorly fitted or top-dose-only effect; inactive means flat fitted curve, though single readings scatter. Potencies beside an inconclusive call are fits to weak or partial responses and may not hold up.
# Biological target: Beta-2 adrenergic receptor (Homo sapiens) (UniProt P07550)
# Chain of UniProt P07550 (P07550 whole entry, looked up): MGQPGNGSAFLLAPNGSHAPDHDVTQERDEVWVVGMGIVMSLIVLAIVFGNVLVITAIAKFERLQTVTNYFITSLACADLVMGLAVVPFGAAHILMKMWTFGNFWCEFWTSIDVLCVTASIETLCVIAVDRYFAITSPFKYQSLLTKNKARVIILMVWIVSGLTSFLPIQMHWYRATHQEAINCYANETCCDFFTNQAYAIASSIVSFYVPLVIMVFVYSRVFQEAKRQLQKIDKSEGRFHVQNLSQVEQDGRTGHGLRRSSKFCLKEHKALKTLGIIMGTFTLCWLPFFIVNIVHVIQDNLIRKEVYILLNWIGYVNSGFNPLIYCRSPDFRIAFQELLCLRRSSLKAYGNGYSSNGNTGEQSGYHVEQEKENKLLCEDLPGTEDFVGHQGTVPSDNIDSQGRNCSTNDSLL
# Assay: qHTS assay of beta-arrestin-biased ligands of beta2-adrenergic receptor: Hit Validation
# Conditions: cell-based beta-arrestin recruitment to beta2AR, activation
# From the text: The concept of biased agonism is an emerging concept of molecular pharmacology which proposes that seven transmembrane receptors (7TMRs) or G protein-coupled receptors (GPCRs), exist in multiple signaling conformations and complexes and that ligands (either agonists or antagonists) can induce signaling biased responses for distinct signal transduction cascades.
# Furthermore, accumulating evidence over the last decade has drawn attention to a novel function of beta-arrestins as signal transducers that scaffold various signaling molecules upon activation of 7TMRs. […] This beta-arrestin-biased signaling presumably leads to distinct physiological outcomes from those by G protein activation.
# Additionally, the active receptor conformations which […] on this beta-arrestin signaling are likely different from those activating G protein signaling
# The goal of this screening project will be to discover and optimize novel beta-arrestin-biased ligands for beta2-AR signaling. A luminescent cell-based assay for beta2-AR-mediated agonism, known as the Tango assay, has been validated in which ligand binding of a recombinant beta2-AR and subsequent recruitment of a recombinant beta-arrestin lead to the release of the transcriptional activator tTA, which upregulates transcription of a tTA-responsive luciferase gene.
# NIH Molecular Libraries Probe Production Network [MLPCN]
# NIH Chemical Genomics Center [NCGC]
# PI: Bryan Roth (UNC) and Bob Lefkowitz (Duke)
# NCGC Assay Protocol Summary:
# Tango cells were dispensed into white, solid, tissue-culture-treated 1536-well plates at 1500 cells/well in DMEM, containing 1% fetal bovine serum (FBS). Then, 23 nL of compounds or DMSO were delivered to each well using a pin tool. Plates were incubated at 37 degrees C, 5% CO2 for 18 hr. Then 2.5 uL luminescent substrate mix (in-house prepared: 150 mM Tris-Cl, pH 7.6, 3 mM MgCl2, 1% Triton X-100, 5 mM DTT, 0.5 mM CoA, 0.15 mM ATP, 0.44 mM D-luciferin, final concentrations) was added to each well. Plates were then incubated for 15 minutes at room temperature, and subsequently measured on a ViewLux plate reader for luminescent signal using a clear filter with a 10 second exposure and 2x binning. The %Activity was determined from the corrected luminescence values.
# Concentration-response curves were fitted to the signals arising from the resulting luminescence. The concentration-effect curves were then classified based on curve quality (r2), response magnitude and degree of measured activity, and compounds were subsequently categorized based on their curve class.
# Keywords: biased agonism, beta2-AR, beta-arrestin, GPCR, 7TMR, Tango, luminescence, MLSMR, MLPCN, NIH Roadmap, qHTS, NCGC
# Potency means the concentration at half of the fitted maximal effect; tags describe the fitted curve by direction and shape.
row,SMILES,Potency
1,COc1ccc2cc1Oc1ccc(cc1)C[C@H]1c3cc(c(OC)cc3CCN1C)Oc1c(O)c(OC)cc3c1[C@H](C2)N(C)CC3,"inconclusive: 11.6 µM [activator, partial curve]"
2,COC(=O)C1=C(c2ccc(OCc3ccccc3)cc2)C[C@@H]2CC[C@H]1N2C(=O)NCc1cccc(OC)c1,"inconclusive: 6.51 µM [activator, partial curve, poor fit]"
3,CC(C)[C@@]1(NC(=O)[C@@H]2C[C@@H]3c4cccc5[nH]cc(c45)C[C@H]3N(C)C2)O[C@@]2(O)[C@@H]3CCCN3C(=O)[C@H](Cc3ccccc3)N2C1=O,"inconclusive: 16.4 µM [activator, single point]"
4,COC(=O)C1=C(c2ccc(OCc3ccccc3)cc2)C[C@@H]2CC[C@H]1N2C(=O)NCc1ccc(OC)c(OC)c1,"inconclusive: 7.31 µM [activator, partial curve]"
5,CNCC(O)c1ccc(OC(=O)C(C)(C)C)c(OC(=O)C(C)(C)C)c1 (stereo not given),"inconclusive: 0.58 µM [activator, full curve]"
